Measurements taken from the RNAGym collection of RNA variant scans (doi:10.7554/elife.90254).
Read counts are not given, so values of variants with three or more changes are uncertain.

B1: LINE1-mini (parent)
chain: GGCAGAGCUCAACACAGCGUGGCAAAGUGGCUGUGGCUAGACUGCC

Variants of: B1
Assay: self-cleavage, relative activity (ratio to wild type); higher = more cleavage; in vitro, sequencing; the parent is a self-cleaving ribozyme

| Variant | self-cleavage |
| --- | --- |
| GGCAGAGCUCAACACAGCGUGGCAAAGUAGCUGGGGCUACACUGCC [G29A U34G G40C] | 0.04 |
| GCCAGAGCUCAACAUAGCGUGGCAAAGUGGCUGUGGCGAGACUGCC [G2C C15U U38G] | 0.06 |
| GGCAGAGCUCAACACAGGGUGGCAAAGUUGCCGUGGCUUGACUGCC [C18G G29U U32C A39U] | 0.05 |
| GGAAUAGCUCAACACAGCUUGGCAAAGUGGCUGUGGCUAGACUGCC [C3A G5U G19U] | 0.14 |
| AGCAGAGCUCAACACAGCGUGCCAAAAUGGCUUUGGCUAGACUGCC [G1A G22C G27A G33U] | 0.07 |
| GGCAGAGCUCAACAAAGCGUGGCAAAUUGGCUGUGCCUAGUCUGCC [C15A G27U G36C A41U] | 0.09 |
| GGCAGAGCUCAACACAGCGUGCUAAAGUGGCUAUGGCUAGACUGCC [G22C C23U G33A] | 0.41 |
| GGCAGAGCUCAACACUGCGUGGCAAAGUGGCGGUGGCUAGACUUGC [A16U U32G G44U C45G] | 0.04 |
| GGCAGAGUUCGACAUAGCGUGGCAAAGUGGCUGUGGCAAGACUGCC [C8U A11G C15U U38A] | 0.01 |
| GGCAGAGCUCAACACAGCGUGGCUAAGUGGCUGUGGCUUGACUGCA [A24U A39U C46A] | 0.58 |
| GGCAGAGCUCAACACAGCGGGGCAAACUGGCUGUGUUUAGACUGCC [U20G G27C G36U C37U] | 0.01 |
| GCCAGAGCUCAACACGGCGUGGCAAAGUGGCUGUGACUACACUGCC [G2C A16G G36A G40C] | 0 |
| GGCAGAGCUCAACACAGCGUAGCUAAGUGGCUGUGGAUAGGCUGCC [G21A A24U C37A A41G] | 0.57 |
| GGGUGAGCUCAUCACAGCGUGGCACAGUUGCUGUGGCUAGACUUCC [C3G A4U A12U A25C G29U G44U] | 0.12 |
| GGCAGAGCUCAACACUGCGUGGCAAACUGGCUGUGGCUAAACUGCC [A16U G27C G40A] | 0.06 |
| GGCAGCGCUCAACCCAACGUGGCAAAGUGGCUGUGGCUAGGCUGCC [A6C A14C G17A A41G] | 0.04 |
| GGCAGAGCUCAACCCAGGGUGGCAAAGUGGCUGUGGCUAGACCGCC [A14C C18G U43C] | 0.03 |
| GGCAGAGCUCAACACAACGUGGCAACGUGGCUCUGGCUAGACUGCC [G17A A26C G33C] | 0.05 |
| GGUAGACAUCAGCACAGCGUGGCAAUGUGGCUGUGGCUAGACUGCC [C3U G7C C8A A12G A26U] | 0.01 |

| Variant | self-cleavage |
| --- | --- |
| GGCAGAGCUCAACGGAACGUGGUAAAGUGGCUGUGGCUAGACUGCC [A14G C15G G17A C23U] | 0.08 |
| GACAGAGAUCAACACAGCGUGGCAAAGUUGCUGAGGUUAGACUACC [G2A C8A G29U U34A C37U G44A] | 0.15 |
| GGCAGAGCUCAUCAUAGCGUGGCAAUGUGGCUGUGGCUAGACUGUC [A12U C15U A26U C45U] | 0.1 |
| GGCUGAGCUCAUCACAGCGUGGCAAAGUGGCAGUGGCUAGACUGCC [A4U A12U U32A] | 0.02 |
| GACAGAGCCCAACACAGCGUGGCAAAGUGGCUGUUGCUAGUCUGCC [G2A U9C G35U A41U] | 0.04 |
| GGCAAAGUUCAGCACAGCGUGGCAAAGUGGCUGUGGCUAGACUGCC [G5A C8U A12G] | 0.02 |
| GGCAGAGCUCAACACAGCGUGUCAAAGUGGCUGUCGCUAGACUGCU [G22U G35C C46U] | 0.04 |
| GGCAGAGCUCAACACAGCUUAGCAAAGUAGCUGCGGCUAGAAUGCC [G19U G21A G29A U34C C42A] | 0.06 |
| GGCAGAAGUCAACACACCGUUCCGAAGUGGCUGUGGCUAGACUGCC [G7A C8G G17C G21U G22C A24G] | 0.03 |
| GGCAGAGCUCACCACAGCGUGGCAAAGUGGCUAUGGCUAGAAUGCC [A12C G33A C42A] | 0.25 |
| GGCAGAGAUCAACACAGCGUGGCAACGCGGCUGUGGCUAGACUGCA [C8A A26C U28C C46A] | 0 |
| GGCAGAGCUCAACACAGCAUUGCAAAUUGGCUGUGGCGAGACUGCC [G19A G21U G27U U38G] | 0.02 |
| GGCAGAGGUCGACAGAGCGUGGCAAAGUGGCUGUGGCUAGACUGCC [C8G A11G C15G] | 0.03 |
| GGCAGAGCUCAAUACAGCGUGGUAAAGUGGCUGUGUCUAGACUGCC [C13U C23U G36U] | 0.05 |
| GGCAGUGCUCAACACAGCGCGCCCAAGUGGCUGUGGCUCACCUGCC [A6U U20C G22C A24C A39C G40A A41C] | 0.03 |
| GGCAGUCCUCAACACAGCGUGGCAAAGUGGCUGUAGCUAGCCUGCU [A6U G7C G35A A41C C46U] | 0.02 |
| GGCGGGACUCAACACAGCGUGCCAAAGUGGCUGUGGCUGGACUGUC [A4G A6G G7A G22C A39G C45U] | 0.21 |
| GGCAGAGUUCGACAUAGCCUGGCAAAGUGGCGGUGGGUAGACUGCC [C8U A11G C15U G19C U32G C37G] | 0.02 |
| GGCAGAACUCAACACAGCGUGGCACAGUGACUGUGGCUAGACUGCC [G7A A25C G30A] | 0.19 |

| Variant | self-cleavage |
| --- | --- |
| CGCAGAGCUCAACACAGCCUGGCAAAGUGGCUGUGGAUAGACUGCC [G1C G19C C37A] | 0.02 |
| GGCAGUGCUCAACACAGCCUGGCAGAGUGGCUGUGCCUAGACUGCC [A6U G19C A25G G36C] | 0.02 |
| AGCAGAGCUCAACACAGCGUGGCAAAUUGGCAGUGGCUAGACUGCC [G1A G27U U32A] | 0.03 |
| GGCAUAGCUCAACACAGCGUGGCAAAGUGGCUGUGGCUAGUCUGGC [G5U A41U C45G] | 0.03 |
| GGCGGAGCACUCCACUGCGUGGCAAAGUGGCUGGGGCUAACCUGCC [A4G U9A A11U A12C A16U U34G G40A A41C] | 0.01 |
| GGUAGAGCUCAACACAGCGUGGCAAAGUGGCUGUGGCAAAACUGCC [C3U U38A G40A] | 0.11 |
| GGCGGAGCUCAACCCAGCGUGGCAAAAUGUCUGUGGCUAGACUGAC [A4G A14C G27A G30U C45A] | 0.09 |
| GGUAGAGCUCUACAGAGCGUGGCAAAGUGGCUGUGGCUAGACUGCC [C3U A11U C15G] | 0.02 |
| GGCAGAGCGCAACAAAGCGUGGCAACGUGGCUGUGGCUAGACUGCC [U9G C15A A26C] | 0.23 |
| GGCUGAGCUCAACACAGCGUGGCAAUGUGGCUGUGGCUAGAGUGCC [A4U A26U C42G] | 0.24 |
| GGACGAGCUCAACACAGCGUGGCAAAUAGGCUUUGGCUAGAAUGCC [C3A A4C G27U U28A G33U C42A] | 0.49 |
| AGAAGAGCUUAACACAGAGUAGCAAAGUGGCUAUGGCUAGACUGCC [G1A C3A C10U C18A G21A G33A] | 0.71 |
| CGGAGAGCUCUACACAGCGUGGCAAAGUGGCUGUGGCUGGACUGCC [G1C C3G A11U A39G] | 0 |
| UGCAGAGCUCAACAUAGCGUGGCAAGGUGGCUGUGGCUAGACUGCC [G1U C15U A26G] | 0.06 |
| GGCAGAGCUCAACAAAGCGUGGUAAAGUGGCUAUGGAGAGACUGCC [C15A C23U G33A C37A U38G] | 0.02 |
| GGCAGAGCUCAACACCUCGUGGCAAAGUGGCUGGGGCUAGACUGCC [A16C G17U U34G] | 0.04 |
| GGCAGAGCUCAACACAGGGUGUCAAAGUGACUCUGGCUAGACUGCC [C18G G22U G30A G33C] | 2.84 |
| GGCAAAGUUCAACACAGCGUGGCAAAGUGGCUGUGGCUAUACUGCC [G5A C8U G40U] | 0.09 |
